From the supplement of paper PMC3334620
Whole data set: some 33,000 sequences, median “E-score (-0.5 to 0.5)” near -0.01, cut for the highest 2% near 0.26. The list shows a part of the results.

The sequences below were run against Ste12 (UniProt P13574) (assay: PBM E-score (8-mer binding enrichment) (E-score (-0.5 to 0.5)); higher = stronger / more preferred TF binding; most listed sequences are background and not binding sites). Conditions: protein concentration: 200 nM; construct: GST-DNA-binding domain.
In short: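 GST-tagged yeast TFs (full-length or DNA-binding domain) were made by PURExpress in vitro transcription/translation and applied at about 100-200 nM to universal all-10-mer Agilent arrays. The arrays were made double-stranded by primer extension, on fresh or once-stripped slides. Bound protein was detected with fluorescent anti-GST, and scans were normalised with masliner. Each ungapped eight-base word, pooled with its reverse complement, received an E-score (modified Wilcoxon-Mann-Whitney statistic) from the Universal PBM Analysis Suite.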
For GATATCGC, the “PBM E-score” value was 0.0363.
For CTGCTAAG, the “PBM E-score” value was -0.129.
For GAATAGAA, the “PBM E-score” value was 0.135.
AGACCGAA was tested, and the “PBM E-score” value was 0.0491.
In the case of ACTCGATG, the “PBM E-score” value is reported as -0.159.
CAGGCCTG was tested, and the “PBM E-score” value was -0.0619.
CGCAGGGA was tested, and the “PBM E-score” value was -0.136.
For AAAACCCA, the “PBM E-score” value was 0.146.
GCTCGCAA was tested, and the “PBM E-score” value was 0.0496.
With ACTGGGTG the “PBM E-score” value was -0.107.
In the case of ACTCTTTC, the “PBM E-score” value is reported as -0.0871.
For ATCTAGAA, the “PBM E-score” value was 0.0817.
CCTTCTGA was tested, and the “PBM E-score” value was -0.0508.
In the case of CCTCAGGA, the “PBM E-score” value is reported as -0.0519.
With ATGATAAA the “PBM E-score” value was 0.209.
In the case of ATATACGG, the “PBM E-score” value is reported as -0.0537.
With CCCCAAAA the “PBM E-score” value was 0.0924.
In the case of CATCTAGG, the “PBM E-score” value is reported as 0.0212.
CTTCGTAA was tested, and the “PBM E-score” value was -0.00738.
With CCTAATAA the “PBM E-score” value was 0.13.
For GGATACGA, the “PBM E-score” value was -0.235.
With ATAAGCCC the “PBM E-score” value was -0.0186.
AACTGGGA was tested, and the “PBM E-score” value was -0.13.
For GCTACCCA, the “PBM E-score” value was -0.191.
For AAAAAGGG, the “PBM E-score” value was 0.218.
In the case of AGGGAAAA, the “PBM E-score” value is reported as 0.209.
For AGAGGGTC, the “PBM E-score” value was -0.115.
For GACAGAGC, the “PBM E-score” value was 0.0393.
With CAACACAC the “PBM E-score” value was 0.0252.
With AAGTCGTC the “PBM E-score” value was -0.00218.
For CTGCATTC, the “PBM E-score” value was 0.0326.
With TAGATCTA the “PBM E-score” value was 0.0651.
ATATCAAA was tested, and the “PBM E-score” value was 0.3.
AGCCGTTC was tested, and the “PBM E-score” value was -0.11.
In the case of CGCAAGCG, the “PBM E-score” value is reported as -0.225.
For GGTCGGAC, the “PBM E-score” value was 0.0322.
With TACCCCTA the “PBM E-score” value was 0.0164.
For AGTGTAGA, the “PBM E-score” value was 0.0573.
CCACACCG was tested, and the “PBM E-score” value was 0.0791.
With CCTGCGAC the “PBM E-score” value was -0.0666.
For CAGCAGCG, the “PBM E-score” value was -0.0218.
With AGCCTCTC the “PBM E-score” value was -0.234.
For AGCCAGGG, the “PBM E-score” value was -0.278.
ACTGGATG was tested, and the “PBM E-score” value was -0.169.
In the case of AATGCAGT, the “PBM E-score” value is reported as -1e-05.
With CCATGTGC the “PBM E-score” value was -0.0407.
For GACCCCAA, the “PBM E-score” value was -0.144.
In the case of AGGTCGGG, the “PBM E-score” value is reported as -0.125.
GACGCTCA was tested, and the “PBM E-score” value was -0.0918.
For GCAGAAGC, the “PBM E-score” value was -0.185.
With ACAGTTAT the “PBM E-score” value was 0.105.
With AGCTAGCA the “PBM E-score” value was -0.272.
In the case of AGATGTTG, the “PBM E-score” value is reported as -0.0675.
With ATGAGGGA the “PBM E-score” value was -0.015.
With AGTTTAAA the “PBM E-score” value was 0.259.
For GAATGTGC, the “PBM E-score” value was 0.06.
ATCATGAA was tested, and the “PBM E-score” value was 0.0529.
ACTGGACC was tested, and the “PBM E-score” value was -0.219.
GGCCCAAA was tested, and the “PBM E-score” value was 0.0386.
With CAGCGCAA the “PBM E-score” value was -0.0584.
AAGACATG was tested, and the “PBM E-score” value was -0.137.
CTTGGGGC was tested, and the “PBM E-score” value was 0.0678.
In the case of CGGGCCAG, the “PBM E-score” value is reported as -0.0756.
In the case of CAGTCCAG, the “PBM E-score” value is reported as -0.271.
In the case of AGATAAAC, the “PBM E-score” value is reported as 0.169.
In the case of CGTAAGCA, the “PBM E-score” value is reported as -0.0602.
For ACGGGCGC, the “PBM E-score” value was 0.0135.
For CAGCCTAC, the “PBM E-score” value was 0.0667.
In the case of CCTCGCCG, the “PBM E-score” value is reported as -0.286.
CGCGGGCA was tested, and the “PBM E-score” value was 0.134.
For CTCTACGC, the “PBM E-score” value was -0.0707.
With AAGCGTAT the “PBM E-score” value was -0.0659.
In the case of AATTAACT, the “PBM E-score” value is reported as 0.0529.
In the case of AAGCGCTA, the “PBM E-score” value is reported as 0.0374.
In the case of ACGCGTAC, the “PBM E-score” value is reported as -0.107.
With GATACGCC the “PBM E-score” value was 0.153.
For AGCACGTA, the “PBM E-score” value was -0.0572.
With GCCCCTAA the “PBM E-score” value was 0.0808.
For CAGTGTGG, the “PBM E-score” value was -0.192.
For CAAACTGC, the “PBM E-score” value was 0.214.
AAAACAAG was tested, and the “PBM E-score” value was 0.104.
For CGTGCGAG, the “PBM E-score” value was 0.0943.
With CGCATTAG the “PBM E-score” value was -0.136.
CTTACGAC was tested, and the “PBM E-score” value was -0.0711.
For AAAGTCAG, the “PBM E-score” value was 0.0447.
For ATAGGTTG, the “PBM E-score” value was -0.0417.
In the case of ACCACGCT, the “PBM E-score” value is reported as -0.172.
GAGAGTAA was tested, and the “PBM E-score” value was 0.142.
For GCCCGAGC, the “PBM E-score” value was 0.0127.
ATCGTTAC was tested, and the “PBM E-score” value was 0.0488.
ACAATGTA was tested, and the “PBM E-score” value was 0.0356.
TCACATAA was tested, and the “PBM E-score” value was 0.176.
In the case of ACGAGGTG, the “PBM E-score” value is reported as 7e-05.
In the case of AGTCACTA, the “PBM E-score” value is reported as -0.073.
In the case of ATAAAATC, the “PBM E-score” value is reported as 0.174.
In the case of CAAGTATC, the “PBM E-score” value is reported as -0.106.
In the case of ACATCGCA, the “PBM E-score” value is reported as -0.0738.
With GCTTCGTA the “PBM E-score” value was -0.0973.
For CATCAGGC, the “PBM E-score” value was -0.111.
With GCCCGTTA the “PBM E-score” value was -0.163.
In the case of CCCCCATA, the “PBM E-score” value is reported as -0.234.
In the case of ATATGCTG, the “PBM E-score” value is reported as -0.00346.
CAAGATGC was tested, and the “PBM E-score” value was 0.0625.
GCAATACA was tested, and the “PBM E-score” value was 0.195.
GCACAGGA was tested, and the “PBM E-score” value was -0.222.
For GTCAAAGA, the “PBM E-score” value was -0.00052.
AATCCGCT was tested, and the “PBM E-score” value was -0.113.
AAATCACC was tested, and the “PBM E-score” value was 0.157.
With AACTTGAA the “PBM E-score” value was 0.197.
For CTTTCTGA, the “PBM E-score” value was 0.175.
With CCTACCAA the “PBM E-score” value was -0.00838.
AGGGTGCA was tested, and the “PBM E-score” value was -0.218.
CGGCGTGA was tested, and the “PBM E-score” value was -0.0692.
CGTCGGCA was tested, and the “PBM E-score” value was 0.0307.
For CGTCGCAA, the “PBM E-score” value was 0.206.
CCCTGCGA was tested, and the “PBM E-score” value was -0.0669.
ATCATAAT was tested, and the “PBM E-score” value was 0.151.
CGGCGTTA was tested, and the “PBM E-score” value was 0.137.
For CAGCTCAA, the “PBM E-score” value was 0.125.
With ATTTGGCC the “PBM E-score” value was -0.126.
For AACGCCTT, the “PBM E-score” value was 0.0337.
AAGTATTC was tested, and the “PBM E-score” value was -0.0278.
With AGAGTGCT the “PBM E-score” value was -0.0029.
With CTCGGTTC the “PBM E-score” value was -0.151.
CATTCCGC was tested, and the “PBM E-score” value was 0.0376.
In the case of ATAGACAG, the “PBM E-score” value is reported as -0.143.
TACGTAGA was tested, and the “PBM E-score” value was -0.133.
With ACAGCTCA the “PBM E-score” value was -0.102.
In the case of GGATATAC, the “PBM E-score” value is reported as 0.0903.
In the case of TATAAGGA, the “PBM E-score” value is reported as 0.124.
For TAAGTAGA, the “PBM E-score” value was 0.0759.
CACCTAAG was tested, and the “PBM E-score” value was -0.0332.
With ATAAAAAC the “PBM E-score” value was 0.134.
CACCAGGC was tested, and the “PBM E-score” value was -0.154.
In the case of GATAGACC, the “PBM E-score” value is reported as -0.144.
With CAGTCTCC the “PBM E-score” value was -0.15.
With CAGTTTGC the “PBM E-score” value was 0.0928.
CATAAAGG was tested, and the “PBM E-score” value was -0.0477.
In the case of CCTCCTAA, the “PBM E-score” value is reported as -0.058.
For ATTGAGCC, the “PBM E-score” value was 0.0949.
CCGGCAGG was tested, and the “PBM E-score” value was -0.0782.
With CCTTTGAG the “PBM E-score” value was -0.119.
For CTCATATC, the “PBM E-score” value was -0.13.
With TATGGTCA the “PBM E-score” value was -0.0454.
CCGGTGCA was tested, and the “PBM E-score” value was 0.0711.
With AGCTGTAA the “PBM E-score” value was -0.023.
For GACTACGA, the “PBM E-score” value was -0.163.
With GAAGCCCA the “PBM E-score” value was -0.179.
GATGTACC was tested, and the “PBM E-score” value was -0.115.
For AACCGGGC, the “PBM E-score” value was -0.0147.
ATGATGCC was tested, and the “PBM E-score” value was 0.0128.
For ATTCACGC, the “PBM E-score” value was -0.0199.
AGTTATGG was tested, and the “PBM E-score” value was -0.102.
For CACCGATA, the “PBM E-score” value was -0.0326.
With ATCTCAGA the “PBM E-score” value was 0.0434.
With CCCTTCAG the “PBM E-score” value was -0.154.
In the case of CTCGGTTA, the “PBM E-score” value is reported as -0.0357.
In the case of ACGGAAGG, the “PBM E-score” value is reported as -0.117.
In the case of CACCTGGA, the “PBM E-score” value is reported as 0.00124.
With TCTTGTAA the “PBM E-score” value was 0.186.
For ATCCTGGG, the “PBM E-score” value was 0.0052.
With CCATTTAG the “PBM E-score” value was -0.0197.
For AACATAAC, the “PBM E-score” value was 0.0575.
CCGATTAG was tested, and the “PBM E-score” value was 0.1.
CCATTTCG was tested, and the “PBM E-score” value was -0.219.
With GACTCGGA the “PBM E-score” value was -0.0923.
GGGCGCCA was tested, and the “PBM E-score” value was 0.0281.
CCACCCTA was tested, and the “PBM E-score” value was 0.107.
CTGTCCAA was tested, and the “PBM E-score” value was -0.0723.
GGTCTGAC was tested, and the “PBM E-score” value was -0.127.
With CTTACTTC the “PBM E-score” value was 0.0889.
For CGAAAGTA, the “PBM E-score” value was 0.0432.
